The source of these data is patent US20160376286A1, “Pyrimidin-4-one derivatives and their use in the tratement, amelioration or prevention of a viral disease” (priority 2011, published 2016).

Each structure is given as a SMILES string.

The target in this experiment is influenza A virus (IAV) PA-Nter fragment (amino acids 1-209) (Influenza A virus, UniProt P31343). The experiment can be described thus: FRET endonuclease activity assay.
`O=C(NO)c1cc(NS(=O)(=O)Cc2cccc(Br)c2)ccn1` displayed an IC50 of 1.8 µM.

`O=C(NO)c1cc(NS(=O)(=O)Cc2cccc(Cl)c2)ccn1` gave an IC50 of 2 µM.

For `O=C(NO)c1cc(NS(=O)(=O)Cc2cc(Cl)cc(Cl)c2)ccn1`, the IC50 was 0.59 µM.

Broadly, the IC50 is the concentration needed to halve the response being measured.
